Laboratory results taken from PubChem BioAssay AID743255 (National Center for Advancing Translational Sciences (NCATS), 2014).
Out of some 390,000 compounds screened, about 910 (0.23%) were called active. Inconclusive results (about 5%) are left out. The call rests on the fitted dose curve; in most records, active means well fitted inhibition curve with a large enough effect; inconclusive means small, poorly fitted or top-dose-only effect; inactive means no such curve, though single readings can be large or run the other way. Only a part is listed here, and it is no random draw.

What follows are molecules tested against Ubiquitin carboxyl-terminal hydrolase 1 (Homo sapiens) (UniProt O94782) (assay: Inhibitors of USP1/UAF1: Primary Screen). Details: recombinant USP1/UAF1, Ub-Rhodamine cleavage fluorescence; activity change, negative = inhibition: at 57.1 µM (top of the series).
From the text: Deubiquitinating enzymes (DUBs) are a class of enzymes that can cleave isopeptide bond formed between the C-terminal carboxylate of ubiquitin and a lysine side-chain amino group on the target protein. Among them, ubiquitin specific proteases (USPs) constitute the largest DUB family. Human USPs are emerging as promising targets for pharmacological intervention because of their connection to a number of human diseases, including prostate, colon and breast cancer (1, 2), pediatric acute lymphoblastic leukemia (3), and familial cylindromatosis (4). The advantage of inhibiting USPs lies in the potential specificity of therapeutic intervention that can lead to better efficacy and reduce nonspecific side effects. In a collaboration between the University of Delaware and the NIH Chemical Genomics Center, a high-throughput screen assay was developed to screen for USP1/UAF1 inhibitors. This miniaturized assay has a fluorescent read-out and is used to screen the NIH Molecular Libraries Small Molecule Repository (MLSMR) in order to identify a small molecule that inhibits USP1. NIH Chemical Genomics Center [NCGC] NIH Molecular Libraries Probe Centers Network [MLPCN] MLPCN Grant: DA030552 Assay Submitter (PI): Zhihao Zhuang, University of Delaware 1. Priolo, C., et al. (2006) The isopeptidase USP2a protects human prostate cancer from apoptosis. Cancer Res 66, 8625-8632 2. Popov, N., et al. (2007) The ubiquitin-specific protease USP28 is required for MYC stability. Nat Cell Biol 9, 765-774 3. De Pitta, C., et al. (2005) A leukemia-enriched cDNA microarray platform identifies new transcripts with relevance to the biology of pediatric acute lymphoblastic leukemia. Haematologica 90, 890-898 4. Kovalenko, A., et al. (2003) The tumour suppressor CYLD negatively regulates NF-kappaB signalling by deubiquitination. Nature 424, 801-805
3 microliters of reagents (buffer in columns 3 and 4 as negative control and 1nM USP1/UAF1 complex in columns 1, 2, and 5-48) are dispensed into Greiner black solid bottom 1536-well assay plates. Compounds are then transferred via Kalypsys pin tool equipped with 1536-pin array (10nl slotted pins, V&P Scientific, San Diego, CA). Following an incubation step of 15 min at room temperature, 1ul of Ub-Rho substrate (150nM final concentration) is added to initiate the reaction. The plates are immediately centrifuged at 1000 rpm for 15 seconds, and subsequently transferred to a ViewLux high-throughput CCD imager (PerkinElmer) wherein kinetic measurements of fluorescence are acquired using 480 nm excitation/540 nm emission filter set (6 reads every 60 seconds, see Table 1). All reagents are diluted in an assay buffer consisting of 50mM HEPES (pH 7.8), 0.5mM EDTA, 0.1 mg/ml BSA, 1mM TCEP, and 0.01% Tween-20.
Further: nearly all actives have a fitted effect of over 60% in size.
On the % scale 0 is the no-effect control and ±100 the full control effect; potency means the concentration at half of the fitted maximal effect.

Chain of UniProt O94782 (O94782 whole entry, looked up): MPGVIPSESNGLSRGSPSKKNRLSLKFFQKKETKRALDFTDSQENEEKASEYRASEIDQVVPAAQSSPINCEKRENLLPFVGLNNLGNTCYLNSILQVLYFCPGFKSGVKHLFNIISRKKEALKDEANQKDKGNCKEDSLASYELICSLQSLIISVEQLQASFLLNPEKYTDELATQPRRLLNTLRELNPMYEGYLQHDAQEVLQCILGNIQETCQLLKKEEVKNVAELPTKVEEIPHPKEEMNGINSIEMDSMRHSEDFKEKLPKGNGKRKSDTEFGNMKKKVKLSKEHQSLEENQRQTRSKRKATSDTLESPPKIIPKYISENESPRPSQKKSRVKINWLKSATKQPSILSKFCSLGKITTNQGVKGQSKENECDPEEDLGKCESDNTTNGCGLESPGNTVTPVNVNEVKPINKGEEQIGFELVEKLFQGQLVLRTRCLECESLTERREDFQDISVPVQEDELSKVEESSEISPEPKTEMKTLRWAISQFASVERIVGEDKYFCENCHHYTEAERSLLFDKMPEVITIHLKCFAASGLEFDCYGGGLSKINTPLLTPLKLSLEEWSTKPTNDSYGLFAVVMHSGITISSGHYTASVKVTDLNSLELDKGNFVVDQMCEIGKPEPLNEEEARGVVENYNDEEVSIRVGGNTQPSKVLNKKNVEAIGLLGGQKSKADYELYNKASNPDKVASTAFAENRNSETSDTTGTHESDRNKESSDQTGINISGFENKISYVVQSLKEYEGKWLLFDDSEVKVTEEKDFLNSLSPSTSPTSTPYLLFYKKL

Row | Structure (SMILES) | activity change, negative = inhibition | Potency
1 | CN(C)CC[C@@H](c1ccc(Br)cc1)c1ccccn1 | inactive: -17.8% | –
2 | Nc1nnc(SCC(=O)Nc2ccccc2)s1 | inactive: -15.3% | –
3 | c1ccc(-c2cnn3c(-c4ccccc4)c(-c4ccccc4)nc3n2)cc1 | – | active: 1.41 µM
4 | C[C@@H]1COC(=O)[C@H](CC(=O)OC(C)(C)C)C/C=C\C[C@@H](CC(=O)NCCO)C(=O)N1 | inactive: 22% | –
5 | C/C=C(\C)C(=O)OC1CC(C)(C)C[C@H]2C3=CC[C@@H]4[C@@]5(C)CCC(O[C@@H]6O[C@@H](C(=O)O)[C@@H](O)C(O[C@@H]7OC[C@H](O)[C@@H](O)[C@@H]7O[C@@H]7OC(CO)C(O)[C@@H](O)[C@@H]7O)C6O[C@@H]6OC(CO)C(O)C(O)C6O)[C@@](C)(CO)[C@@H]5CC[C@]4(C)[C@]3(C)CC(O)[C@@]12CO (stereo not given in full) | inactive: -21.9% | –
6 | C[C@H]1CN([C@@H](C)CO)C(=O)CCCn2cc(nn2)CO[C@@H]1CN(C)C(=O)Nc1cccc(C(F)(F)F)c1 | inactive: -22.4% | –
7 | COC(=O)c1ccc(NC(=O)N2CCc3c([nH]c4ccccc34)C2c2ccc(C)cc2)cc1 (stereo not given) | inactive: -25.9% | –
8 | CN(C[C@H](Cc1ccccc1)N(C[C@@H](CC1CCCCC1)N(CCc1ccccc1)N=O)N=O)N=O | inactive: -16.4% | –
9 | CCSc1ccc([C@@H]2[C@@H]3C(=O)N(CC)C(=O)[C@@H]3[C@]3(C(=O)OC)CCCCN23)cc1 | inactive: -17.3% | –
10 | O=c1cc2nc(-c3cccs3)nc(SCCOc3ccc(Cl)cc3)n2[nH]1 | inactive: 35.8% | –
11 | O=C(C[C@H]1C/C=C\CC[C@@H](Cc2ccc(F)cc2)C(=O)OC[C@H]2CCCN2C1=O)N[C@H](CO)Cc1ccccc1 | inactive: -4.46% | –
12 | Cc1ccc(O)c(NC(=O)c2noc3c2CCCCC3)c1 | inactive: -16.5% | –
13 | C[C@@H]1CN([C@@H](C)CO)C(=O)CCCn2nncc2CO[C@H]1CN(C)S(=O)(=O)c1ccccc1F | inactive: -6.73% | –
14 | O=C1/C(=C\c2cccnc2)Sc2ccccc21 | inactive: -11.8% | –
15 | Oc1sc(C=Nc2ccc(F)cc2)c2ccccc12 | – | active: 31.6 µM
16 | CCO[C@H]1OC(C(=O)NC2CC2)=C[C@@H](c2ccc(Br)cc2)[C@@H]1CCCO | inactive: -23.4% | –
17 | COC(=O)c1cc(C(=O)c2cc(F)ccc2O)cn2c(=O)c3c(C)c(C)sc3nc12 | inactive: 35.7% | –
18 | COc1ccc(N(CC(=O)N2CCN(c3cccc(Cl)c3)CC2)S(=O)(=O)c2c(C)noc2C)cc1 | inactive: -27.1% | –
19 | C=CC[C@@H](Cc1ccc(F)cc1)C(=O)OC[C@@H]1CCCN1C(=O)[C@@H](CC=C)CC(=O)N[C@H](CO)Cc1ccccc1 | inactive: -28.4% | –
20 | CCc1c(C)sc(NC(=O)c2cc(-c3ccc(OC)c(OC)c3)on2)c1C#N | inactive: -3.31% | –

Row | Structure (SMILES) | activity change, negative = inhibition | Potency
21 | C=CCC[C@@H](Cc1ccc(F)cc1)C(=O)OC[C@@H](NC(=O)[C@@H](CC=C)CC(=O)N(CCO)Cc1ccccc1)c1ccccc1 | inactive: -22.5% | –
22 | CCc1ccccc1NC(=O)Cn1nnc(C(=O)NCc2cccc(OC)c2)c1N | inactive: -19% | –
23 | NC(=S)N=Nc1c(O)cc(O)c2[nH]c(=O)ccc12 | – | active: 17.8 µM
24 | CN1/C(=C\C=C2/SC(=S)N(CC(=O)O)C2=O)C(C)(C)c2ccccc21 | – | active: 25.1 µM
25 | NC(=O)c1sc2nnc(-c3ccccc3)c(-c3ccccc3)c2c1N | inactive: 50.3% | –
26 | COC(=O)[C@@]12CCCCN1[C@H](c1ccc(-c3cccc(Cl)c3)c(OC)c1)[C@H]1C(=O)N(C)C(=O)[C@H]12 | inactive: -13.8% | –
27 | Cc1cc(/C=C2/SC(=O)N(CC(=O)N3CCCC3)C2=O)c(C)n1C | inactive: 79.2% | –
28 | CC1(C)N([O-])c2cc([N+](=O)[O-])ccc2[N+]1=O | – | active: 25.1 µM
29 | CN(C)c1ccc(C=C(c2nnnn2-c2ccccc2)c2nnnn2-c2ccccc2)cc1 | inactive: 31.1% | –
30 | OCC[C@@H]1C[C@H](O)[C@@H](O)[C@]2(CCCCO2)O1 | inactive: 10.9% | –
31 | CN(C)c1ccc(/C=C(\C#N)c2nc3ccccc3c(=O)[nH]2)cc1 | inactive: 95.2% | –
32 | C[C@@H]1CN([C@@H](C)CO)S(=O)(=O)c2ccc(Br)cc2O[C@H]1CN(C)C(=O)Nc1ccc2c(c1)OCO2 | inactive: -24.5% | –
33 | O=C1NC[C@H](c2ccccc2)OC(=O)[C@@H](Cc2ccc(F)cc2)CC/C=C/C[C@H]1CC(=O)N(CCO)Cc1ccccc1 | inactive: -8.88% | –
34 | C[C@H]1Cn2cnc(C(=O)N[C@@H](Cc3c[nH]c4ccccc34)C(=O)OC(C)(C)C)c2C(=O)N1 | inactive: -24.4% | –
35 | CCc1nnc(NS(=O)(=O)c2ccc(NC(=S)NC(=O)/C=C/c3ccc(C(C)C)cc3)cc2)s1 | – | active: 25.1 µM
36 | Cc1ccc(/C(C#N)=C\c2ccc(N3CCOCC3)o2)cc1 | – | active: 25.1 µM
37 | C=CC[C@@H](CC(=O)OC(C)(C)C)C(=O)OC[C@H]1CCCN1C(=O)[C@@H](CC=C)CC(=O)N[C@H](CO)Cc1ccccc1 | inactive: -15.5% | –
38 | Cc1cccc(C(=O)Nc2sc3c(c2C(=O)O)CCCC3)c1 | inactive: -8.91% | –
39 | CCO[C@H]1OC(C(=O)NC2CC2)=C[C@@H](c2ccccc2)[C@@H]1CCCO | inactive: -7.89% | –
40 | O=C(O)CCNc1cc(N2CCN(C(=O)c3ccco3)CC2)c2noc3c2c1C(=O)c1ccccc1-3 | – | active: 14.1 µM
